Data: the supplement of paper PMC10037445
The full ranking holds about 2,900 compounds; the median of “NF-kB SEAP reporter activity, fold change vs agonist alone” is about 0.99, and the highest 2% start at about 2.6. This is one part of the list.

What was measured:
RAW-Dual [1] = test: NF-kB SEAP reporter activity, fold change vs agonist alone; higher = enhanced NF-kB activity; details: cytotoxicity flag (confluency mask): not cytotoxic
Summary of the method: (§1)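 Cytotoxic wells were those whose IncuCyte confluency was below 70% of agonist controls in both mask sets. The cells were RAW-Dual macrophages at 50,000 cells/well in DMEM on 384-well plates, dosed with 50 nL of library stock by pin tool, stimulated with a PRR agonist 1 h later, and kept at 37 °C, 5% CO2 for 20 hours. IRF and NF-κB reporter activity, as fold change over agonist-alone wells, came from supernatant read by QuantiLuc luminescence and QuantiBlue absorbance, respectively.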

RAW-Dual [2] = test: NF-kB SEAP reporter activity, fold change vs agonist alone; cytotoxicity flag (confluency mask): not cytotoxic; higher = enhanced NF-kB activity
Summary of the method: as §1

[3] = library stock concentration (final ~1000-fold dilution): 10 mM, agonist: Imiquimod (TLR7) […]
[4] = library stock concentration (final ~1000-fold dilution): 10 mM, agonist: MPLA (TLR4) […]
[5] = agonist: ODN 1826 (TLR9) 0.5 ug/mL
[6] = agonist: Pam2CSK4 (TLR2/6) 0.1 ug/mL
[7] = agonist: Pam3CSK4 (TLR2/1) 0.1 ug/mL

CCOC(=O)C1OC1C(=O)NC(CC(C)C)C(=O)NCCC(C)C (stereo not drawn)
NF-kB SEAP reporter activity (RAW-Dual [1]; [3]): 0.405
NF-kB SEAP reporter activity (RAW-Dual [1]; [4]): 0.838

CCOC(=O)C1OC1C(=O)NC(CC(C)C)C(=O)NCCC(C)C (stereo not drawn) (library stock concentration (final ~1000-fold dilution): 10 mM)
NF-kB SEAP reporter activity (RAW-Dual [2]; agonist: LPS (TLR4) 0.1 ug/mL): 0.608
NF-kB SEAP reporter activity (RAW-Dual [2]; [5]): 0.892
NF-kB SEAP reporter activity (RAW-Dual [2]; [6]): 0.839
NF-kB SEAP reporter activity (RAW-Dual [2]; [7]): 0.79

Cl.N=C(N)NC(=O)c1nc(Cl)c(N)nc1N
NF-kB SEAP reporter activity (RAW-Dual [1]; [3]): 0.88
NF-kB SEAP reporter activity (RAW-Dual [1]; [4]): 0.876

Cl.N=C(N)NC(=O)c1nc(Cl)c(N)nc1N (library stock concentration (final ~1000-fold dilution): 10 mM)
NF-kB SEAP reporter activity (RAW-Dual [2]; agonist: LPS (TLR4) 0.1 ug/mL): 0.944
NF-kB SEAP reporter activity (RAW-Dual [2]; [5]): 0.967
NF-kB SEAP reporter activity (RAW-Dual [2]; [6]): 0.889
NF-kB SEAP reporter activity (RAW-Dual [2]; [7]): 0.92

O=C(NCCS(=O)(=O)c1ccc(C(F)(F)F)cn1)c1ccc(Cl)cc1
NF-kB SEAP reporter activity (RAW-Dual [1]; [3]): 0.88
NF-kB SEAP reporter activity (RAW-Dual [1]; [4]): 0.923

O=C(NCCS(=O)(=O)c1ccc(C(F)(F)F)cn1)c1ccc(Cl)cc1 (library stock concentration (final ~1000-fold dilution): 10 mM)
NF-kB SEAP reporter activity (RAW-Dual [2]; agonist: LPS (TLR4) 0.1 ug/mL): 1.09
NF-kB SEAP reporter activity (RAW-Dual [2]; [5]): 0.846
NF-kB SEAP reporter activity (RAW-Dual [2]; [6]): 1.11
NF-kB SEAP reporter activity (RAW-Dual [2]; [7]): 1.02

CC(C)CC(=O)Nc1n[nH]c2c1CN(C(=O)C1CCN(C)CC1)C2(C)C (library stock concentration (final ~1000-fold dilution): 10 mM)
NF-kB SEAP reporter activity (RAW-Dual [2]; agonist: LPS (TLR4) 0.1 ug/mL): 0.87
NF-kB SEAP reporter activity (RAW-Dual [2]; [5]): 2.42
NF-kB SEAP reporter activity (RAW-Dual [2]; [6]): 0.981
NF-kB SEAP reporter activity (RAW-Dual [2]; [7]): 1.32

CC(C)CC(=O)Nc1n[nH]c2c1CN(C(=O)C1CCN(C)CC1)C2(C)C
NF-kB SEAP reporter activity (RAW-Dual [1]; [3]): 2.08
NF-kB SEAP reporter activity (RAW-Dual [1]; [4]): 1.01

CC(C)=CCC[C@](C)(O)[C@@H]1CC[C@]2(C)C3CCC4C(C)(C)C(O[C@@H]5O[C@H](CO)[C@@H](O)[C@H](O)[C@H]5O[C@@H]5O[C@H](CO)[C@@H](O)[C@H](CO)[C@H]5O)CC[C@]4(C)C3C[C@H](O)[C@H]12 (stereo partly drawn)
NF-kB SEAP reporter activity (RAW-Dual [1]; [3]): 1.01
NF-kB SEAP reporter activity (RAW-Dual [1]; [4]): 1.17

CC(C)=CCC[C@](C)(O)[C@@H]1CC[C@]2(C)C3CCC4C(C)(C)C(O[C@@H]5O[C@H](CO)[C@@H](O)[C@H](O)[C@H]5O[C@@H]5O[C@H](CO)[C@@H](O)[C@H](CO)[C@H]5O)CC[C@]4(C)C3C[C@H](O)[C@H]12 (stereo partly drawn) (library stock concentration (final ~1000-fold dilution): 10 mM)
NF-kB SEAP reporter activity (RAW-Dual [2]; agonist: LPS (TLR4) 0.1 ug/mL): 1.2
NF-kB SEAP reporter activity (RAW-Dual [2]; [5]): 0.581
NF-kB SEAP reporter activity (RAW-Dual [2]; [6]): 0.971
NF-kB SEAP reporter activity (RAW-Dual [2]; [7]): 0.922

Cc1ccc(C(=O)N(CCCN)C(c2oc3cc(Cl)ccc3c(=O)c2Cc2ccccc2)C(C)C)cc1.Cl (stereo not drawn)
NF-kB SEAP reporter activity (RAW-Dual [1]; [3]): 0.905
NF-kB SEAP reporter activity (RAW-Dual [1]; [4]): 1.03

Cc1ccc(C(=O)N(CCCN)C(c2oc3cc(Cl)ccc3c(=O)c2Cc2ccccc2)C(C)C)cc1.Cl (stereo not drawn) (library stock concentration (final ~1000-fold dilution): 10 mM)
NF-kB SEAP reporter activity (RAW-Dual [2]; agonist: LPS (TLR4) 0.1 ug/mL): 0.189
NF-kB SEAP reporter activity (RAW-Dual [2]; [5]): 0.953
NF-kB SEAP reporter activity (RAW-Dual [2]; [6]): 0.344
NF-kB SEAP reporter activity (RAW-Dual [2]; [7]): 0.73

Cc1c(OCC(F)(F)F)ccnc1CS(=O)c1nc2ccccc2[nH]1 (stereo not drawn)
NF-kB SEAP reporter activity (RAW-Dual [1]; [3]): 0.849
NF-kB SEAP reporter activity (RAW-Dual [1]; [4]): 0.918

Cc1c(OCC(F)(F)F)ccnc1CS(=O)c1nc2ccccc2[nH]1 (stereo not drawn) (library stock concentration (final ~1000-fold dilution): 10 mM)
NF-kB SEAP reporter activity (RAW-Dual [2]; agonist: LPS (TLR4) 0.1 ug/mL): 0.895
NF-kB SEAP reporter activity (RAW-Dual [2]; [5]): 0.905
NF-kB SEAP reporter activity (RAW-Dual [2]; [6]): 0.711
NF-kB SEAP reporter activity (RAW-Dual [2]; [7]): 0.795

CC(C)(C)N.CCCC(NC(C)C(=O)N1C(C(=O)O)CC2CCCCC21)C(=O)OCC (stereo not drawn) (library stock concentration (final ~1000-fold dilution): 10 mM water)
NF-kB SEAP reporter activity (RAW-Dual [2]; agonist: LPS (TLR4) 0.1 ug/mL): 1.05
NF-kB SEAP reporter activity (RAW-Dual [2]; [5]): 1.13
NF-kB SEAP reporter activity (RAW-Dual [2]; [6]): 1.17
NF-kB SEAP reporter activity (RAW-Dual [2]; [7]): 1.02

CC(C)(C)N.CCCC(NC(C)C(=O)N1C(C(=O)O)CC2CCCCC21)C(=O)OCC (stereo not drawn)
NF-kB SEAP reporter activity (RAW-Dual [1]; library stock concentration (final ~1000-fold dilution): 10 mM water, agonist: Imiquimod (TLR7) […]): 0.909
NF-kB SEAP reporter activity (RAW-Dual [1]; library stock concentration (final ~1000-fold dilution): 10 mM water, agonist: MPLA (TLR4) […]): 1.04
